Assay results as given in PubChem BioAssay (NCATS).
“And” between values parts separate entries of the source, which are not always exact repeats. Equal values may be shown once. Inconclusive means that the source gave no clear call. Such entries were picked first, then a sample of the others. Potencies of inconclusive entries are doubtful fits and often do not repeat. The source made the active and inactive calls. Calls follow the shape of the dose curve; as a rule, active = well fitted curve in the direction sought with a large enough effect; inconclusive = small, poorly fitted or top-dose-only effect, or another doubt; inactive = no such curve, though single readings can be large; an effect the other way counts as inactive or inconclusive.

Key:
[1] = Viability qHTS for spleen associated tyrosine kinase inhibitor (SYKi) drug resistant MV4-11 cells (AID 1963824); also: nearly all actives have a fitted effect of over 35% in size
In short: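 SYK-inhibitor-resistant MV4-11 AML cells were seeded at 500 per well onto compound and cultured 72 hours (37 °C, 5% CO2). CellTiter-Glo was then added, and after 10 min at room temperature, luminescence gave viability.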

[2] = Quantitative highthroughput screen to assess conditional lethalithy of NOMO1 cells grown in RPMI1640 with untreated serum (RPMI+s) (AID 1963876); conditions: NOMO1 AML cells in RPMI+serum, CellTiter-Glo viability, 48 h; viability: at 45.8 µM (top of the series); also: nearly all actives have a fitted effect of over 35% in size;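 as to Viability: 100% = DMSO wells and 0% = empty wells without cells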
In short: (§1)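 Each medium arm—HPLM with 10% dialyzed FBS, or RPMI1640 with 5 mM glucose and 10% untreated or dialyzed FBS—was screened against an 11-point, 3-fold compound titration for 48 h at 37 °C, with CellTiter-Glo luminescence as endpoint.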

[3] = Quantitative highthroughput screen to assess conditional lethalithy of NOMO1 cells grown in Human Plasma-Like Medium with dialyzed fetal bovine serum (HPLM+ds) (AID 1963878); conditions: NOMO1 AML cells in HPLM+ds, CellTiter-Glo viability, 48 h; viability: at 45.8 µM (top of the series); also: nearly all actives have a fitted effect of over 35% in size;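 as to Viability: 100% = DMSO wells and 0% = empty wells on each plate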
In short: as §1

[4] = Quantitative highthroughput screen to assess conditional lethalithy of P12 Ichikawa cells grown in Human Plasma-Like Medium with dialyzed fetal bovine serum (HPLM+ds) (AID 1963879); conditions: Potency: viability; also: nearly all actives have a fitted effect of over 35% in size
In short: as §1

[5] = Quantitative highthroughput screen to assess conditional lethalithy of P12 Ichikawa cells grown in RPMI1640 with dialyzed fetal bovine serum (RPMI+ds) (AID 1963880); conditions: Potency: P12-Ichikawa viability; also: nearly all actives have a fitted effect of over 35% in size;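 as to Viability: 100% = DMSO wells and 0% = empty wells on each plate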
In short: as §1

[6] = Quantitative highthroughput screen to assess conditional lethalithy of SEM cells grown in RPMI1640 with unreated serum (RPMI+s) (AID 1963883); conditions: SEM B-ALL cells, CellTiter-Glo viability, 48 h; viability: at 45.8 µM (top of the series); also: nearly all actives have a fitted effect of over 35% in size;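 as to Viability: 100% = DMSO wells and 0% = empty wells without cells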
In short: as §1

[7] = Quantitative highthroughput screen to assess conditional lethalithy of NOMO1 cells grown in RPMI1640 with dialyzed fetal bovine serum (RPMI+ds) (AID 1963877); also: nearly all actives have a fitted effect of over 30% in size;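 as to Viability: 100% = DMSO control wells and 0% = empty wells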
In short: as §1

[8] = Quantitative highthroughput screen to assess conditional lethalithy of P12 Ichikawa cells grown in RPMI1640 with untreated serum (RPMI+s) (AID 1963881); conditions: Potency: viability; also: nearly all actives have a fitted effect of over 35% in size;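 as to Viability: 100% = DMSO wells and 0% = empty wells without cells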
In short: as §1

[9] = Quantitative highthroughput screen to assess conditional lethalithy of SEM cells grown in Human Plasma-Like Medium with dialyzed fetal bovine serum (HPLM+ds) (AID 1963882); also: nearly all actives have a fitted effect of over 35% in size
In short: as §1

[10] = Quantitative highthroughput screen to assess conditional lethalithy of SEM cells grown in RPMI1640 with dialyzed fetal bovine serum (RPMI+ds) (AID 1963884); conditions: SEM B-ALL cells, RPMI+dialyzed FBS, CellTiter-Glo viability, 48 h; viability: at 45.8 µM (top of the series); also: nearly all actives have a fitted effect of over 35% in size;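 as to Viability: 100% = DMSO control wells and 0% = empty wells without cells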
In short: as §1

[11] = Cellular viability qHTS for adrenocortical cancer (ACC) cell line SW-13 (AID 1963989); conditions: SW-13 ACC cells viability, CellTiter-Glo, 48 h; activity (max response): stronger effect = lower value; also: nearly all actives have a fitted effect of over 65% in size;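 as to activity (max response): cells grown in serum-free medium with ITS supplement; % is scaled to controls: 0 for no effect and ±100 for the full control effect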
In short: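 Luminescent ATP read-out (CellTiter-Glo, 20 min at room temperature) measured metabolically competent SW-13 cells after 48 h compound treatment. Final concentrations spanned up to 46 uM; bortezomib served as positive control.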

[12] = Cellular viability qHTS for adrenocortical cancer (ACC) cell line NCI-H295R (AID 1963990); conditions: CellTiter-Glo ATP luminescence, 48 h; activity change, negative = viability loss: at 46.1 µM (top of the series); also: nearly all actives have a fitted effect of over 60% in size;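 as to activity change, negative = viability loss: 0% = DMSO only wells and -100% = full killing with cytotoxic reference compound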
In short: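 IC50 and maximal efficacy derive from four-parameter logistic modelling of titration curves, with reads scaled between DMSO-only wells (0%) and doxorubicin hydrochloride (100% inhibition). Compounds spanned up to 46 uM over 48 h.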
Potency is read from the fitted curve at half-maximal effect; tags tell the direction and shape of the fitted curve.

COc1ccccc1-c1cccc(-c2c(O)c3cc(C#N)c(Cl)cc3[nH]c2=O)c1
Potency [1]: inconclusive: 20.9 µM [cytotoxic, single point]
Potency [2]: active: 17.1 µM
Potency [3]: active: 6.79 µM
Potency [4]: active: 4.81 µM
Potency [5]: active: 8.55 µM
Potency [6]: active: 2.7 µM

C[C@H]1COc2c(N3CCN(C)CC3)c(F)cc3c(=O)c(C(=O)O)cn1c23
Potency [1]: inconclusive: 11.8 µM [cytotoxic, single point]
Potency [2]: inconclusive: 26.4 µM [cytotoxic, partial curve, poor fit]
Potency [7]: active: 23.5 µM
Potency [5]: inconclusive: 5.9 µM [cytotoxic, partial curve]
Potency [8]: active: 4.18 µM
Potency [9]: inconclusive: 1.66 µM [cytotoxic, full curve]
Potency [10]: active: 1.32 µM

N[C@@H](Cc1ccc(O)c(O)c1)C(=O)O
Potency [1]: inconclusive: 20.9 µM [cytotoxic, single point]
Potency [2]: inactive
Potency [3]: inconclusive: 23.5 µM [cytotoxic, partial curve]
Potency [6]: inactive

CN1CCC(COc2cnc(-c3cccc(Cn4nc(-c5cccc(C#N)c5)ccc4=O)c3)nc2)CC1
Potency [1]: active: 7.42 µM and active: 13 µM
Potency [2]: inactive
Potency [3]: inactive
Potency [6]: inactive
Potency [10]: inactive
Potency [11]: inconclusive: 22.4 µM [cytotoxic, single point]

CCn1c(-c2nonc2N)nc2c(C#CC(C)(C)O)ncc(OC[C@H]3CCCNC3)c21
Potency [1]: active: 7.42 µM
Potency [2]: inconclusive: 37.2 µM [cytotoxic, single point]
Potency [3]: inconclusive: 0.132 µM [cytotoxic, full curve]
Potency [5]: inconclusive: 0.0833 µM [cytotoxic, full curve]
Potency [8]: inconclusive: 0.0235 µM [cytotoxic, full curve]
Potency [9]: active: 18.7 µM
Potency [6]: active: 23.5 µM
Potency [10]: active: 14.8 µM
Potency [11]: active: 28.2 µM
Potency [12]: active: 17.8 µM

N#Cc1c(N(CC(=O)O)CC(=O)O)sc(C(=O)O)c1CC(=O)O
Potency [1]: inactive
Potency [2]: inactive
Potency [3]: inactive
Potency [5]: inconclusive: 13.2 µM [cytotoxic, partial curve]
Potency [8]: inconclusive: 16.6 µM [cytotoxic, partial curve]
Potency [6]: inconclusive: 16.6 µM [cytotoxic, partial curve, poor fit]
Potency [10]: inconclusive: 13.2 µM [cytotoxic, partial curve]

CC(=O)OC[C@@H]1O[C@@H](n2ccc(=O)[nH]c2=O)[C@H](OC(C)=O)[C@H]1OC(C)=O
Potency [1]: inconclusive: 33.2 µM [cytotoxic, single point]
Potency [2]: inconclusive: 20.9 µM [cytotoxic, partial curve]
Potency [7]: inconclusive: 20.9 µM [cytotoxic, partial curve]
Potency [3]: inconclusive: 11.8 µM [cytotoxic, partial curve]
Potency [4]: inconclusive: 33.2 µM [cytotoxic, single point]
Potency [6]: inconclusive: 41.8 µM [cytotoxic, single point]
Potency [10]: inactive

C[C@]1(c2nc3c(C(N)=O)cccc3[nH]2)CCCN1
Potency [1]: inconclusive: 23.5 µM [cytotoxic, partial curve, poor fit]
Potency [2]: inconclusive: 37.2 µM [cytotoxic, single point]
Potency [7]: inconclusive: 33.2 µM [cytotoxic, single point]
Potency [5]: inconclusive: 37.2 µM [cytotoxic, single point]
Potency [8]: inconclusive: 33.2 µM [cytotoxic, single point]
Potency [6]: inconclusive: 37.2 µM [cytotoxic, single point]
Potency [10]: inconclusive: 29.6 µM [cytotoxic, single point]
Potency [12]: inactive

O=C(O)c1cccnc1
Potency [1]: inconclusive: 0.0009 µM
Potency [2]: active: 8.33 µM
Potency [3]: active: 3.72 µM
Potency [4]: inconclusive: 5.26 µM [cytotoxic, full curve]
Potency [5]: active: 10.5 µM
Potency [8]: inconclusive: 11.8 µM [cytotoxic, partial curve]
Potency [9]: active: 1.18 µM

Nc1nc(Cl)nc2c1ncn2[C@@H]1O[C@H](CO)[C@@H](O)[C@H]1F
Potency [1]: active: 0.164 µM
Potency [2]: inconclusive: 0.0066 µM [cytotoxic, full curve, poor fit]
Potency [7]: inconclusive: 0.0059 µM [cytotoxic, full curve, poor fit]
Potency [3]: inconclusive: 0.0132 µM [cytotoxic, full curve, poor fit]
Potency [8]: inactive

NC(=O)Cc1cccc(C(=O)c2ccccc2)c1N
Potency [1]: inactive
Potency [2]: inactive
Potency [3]: inactive
Potency [9]: inconclusive: 0.0013 µM [rising, full curve, poor fit]
Potency [6]: inconclusive: 0.0418 µM [rising, full curve, poor fit]
Potency [10]: inconclusive: 0.0019 µM [rising, full curve, poor fit]
Potency [12]: inconclusive: 29.1 µM [cytotoxic, single point]

OCCN1CCN(CCCN2c3ccccc3Sc3ccc(C(F)(F)F)cc32)CC1
Potency [1]: active: 26.6 µM and active: 5.25 µM
Potency [2]: inconclusive: 8.33 µM [cytotoxic, full curve]
Potency [7]: inconclusive: 26.4 µM [cytotoxic, single point]
Potency [3]: inconclusive: 7.43 µM [cytotoxic, partial curve]
Potency [5]: active: 14.8 µM
Potency [9]: inconclusive: 0.332 µM [cytotoxic, full curve, poor fit]
Potency [6]: inconclusive: 0.332 µM [cytotoxic, full curve, poor fit]
Potency [10]: inconclusive: 0.332 µM [cytotoxic, full curve, poor fit]
Potency [11]: inconclusive: 18.4 µM [cytotoxic, single point]
Potency [12]: inconclusive: 29.1 µM [cytotoxic, single point]

CN1CCC(=C2c3ccccc3C=Cc3ccccc32)CC1
Potency [1]: active: 18.8 µM and inconclusive: 14.8 µM [cytotoxic, partial curve]
Potency [7]: inactive
Potency [3]: inactive
Potency [8]: inactive
Potency [6]: inactive
Potency [10]: inconclusive: 20.9 µM [cytotoxic, single point]
Potency [11]: inconclusive: 18.4 µM [cytotoxic, single point]
Potency [12]: inconclusive: 20.6 µM [cytotoxic, single point] and active: 3.98 µM

O=C(c1cncc(Br)c1)N1CCC(N2CCCC2)CC1
Potency [1]: inactive
Potency [7]: inactive
Potency [5]: inactive
Potency [8]: inactive
Potency [9]: inactive

c1ccc([C@H]2CN3CCSC3=N2)cc1
Potency [1]: inactive
Potency [7]: inactive
Potency [3]: inconclusive: 33.2 µM [cytotoxic, single point]
Potency [5]: inactive
Potency [6]: inconclusive: 37.2 µM [cytotoxic, single point]

O=C(c1ccc(Nc2nccc(-c3cc4ccccc4s3)n2)cc1)N1CCC(N2CCCC2)CC1
Potency [1]: active: 1.64 µM and active: 731 nM
Potency [2]: active: 26.4 µM
Potency [8]: active: 23.5 µM
Potency [10]: active: 9.35 µM
Potency [12]: active: 5.62 µM

COC[C@@H](c1ccc(C(F)(F)F)cc1)N1CCN(C2(C)CCN(C(=O)c3c(C)ncnc3C)CC2)C[C@H]1C
Potency [1]: inconclusive: 29.9 µM [cytotoxic, single point]
Potency [7]: inconclusive: 5.26 µM [cytotoxic, full curve]
Potency [3]: inconclusive: 1.32 µM [cytotoxic, full curve]
Potency [5]: inactive
Potency [9]: inconclusive: 26.4 µM [cytotoxic, single point]
Potency [6]: inconclusive: 26.4 µM [cytotoxic, single point]
Potency [12]: inconclusive: 6.51 µM [cytotoxic, single point]

CN(C)c1nc(N(C)C)nc(N(C)C)n1
Potency [1]: inactive
Potency [2]: inactive
Potency [6]: inactive

C[C@@]1(c2cc(-c3cncnc3)c(F)cc2F)CCSC(N)=N1
Potency [1]: inconclusive: 5.63 µM [cytotoxic, single point] and active: 23.5 µM
Potency [7]: inconclusive: 2.64 µM [cytotoxic, full curve]
Potency [3]: active: 3.72 µM
Potency [4]: active: 10.5 µM
Potency [9]: inconclusive: 33.2 µM [cytotoxic, single point]
Potency [10]: active: 16.6 µM
activity (max response) [11]: inactive: -2.1%

C[C@H]1c2cccc(O)c2C(O)=C2C(=O)[C@]3(O)C(O)=C(C(N)=O)C(=O)[C@@H](N(C)C)[C@@H]3[C@@H](O)[C@@H]21
Potency [1]: inconclusive: 33.5 µM [cytotoxic, single point] and active: 14.8 µM
Potency [7]: inactive
Potency [3]: inactive
Potency [9]: inactive
Potency [10]: inconclusive: 5.9 µM [cytotoxic, full curve, poor fit]

Cc1cnc(Nc2ccc(N3CCN(C)CC3)cc2)nc1Nc1cccc(S(=O)(=O)NC(C)(C)C)c1
Potency [1]: active: 0.206 µM
Potency [7]: inconclusive: 16.6 µM [cytotoxic, partial curve]
Potency [4]: active: 11.8 µM
Potency [5]: active: 16.6 µM
Potency [9]: active: 1.05 µM
Potency [10]: active: 1.32 µM
Potency [11]: active: 12.6 µM

O=C(NCCS(=O)(=O)c1ccc(C(F)(F)F)cn1)c1ccc(Cl)cc1
Potency [1]: inconclusive: 20.9 µM [cytotoxic, single point]
Potency [7]: inactive
Potency [3]: inactive
Potency [5]: inactive
Potency [9]: inactive

COc1cc(NS(=O)(=O)c2ccc(N)cc2)nc(OC)n1
Potency [1]: inactive
Potency [7]: inactive
Potency [3]: inactive
Potency [9]: inconclusive: 16.6 µM [cytotoxic, partial curve, poor fit]
Potency [10]: inactive

COc1ccccc1OCCNCC(O)COc1cccc2[nH]c3ccccc3c12 (stereo unspecified)
Potency [1]: active: 11.9 µM
Potency [7]: inactive
Potency [5]: inactive
Potency [11]: inconclusive: 20.6 µM [cytotoxic, single point]
Potency [12]: inconclusive: 16.4 µM [cytotoxic, single point]
